# According to the supplement of paper PMC8728848:
# This is one part of the list.
# Columns and labels:
# Assay in all cases: glycan array binding signal (z-score within array); higher = stronger binding
# Settings in all cases: glycan notation: IUPAC condensed, linker removed
# [1] = target: Neu5Ac(a2-3)Gal(b1-4)GlcNAc(b1-3)Gal(b1-4)[Fuc(a1-3)]GlcNAc
# Method in brief: (§1)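 Columns mapping to the same glycan were averaged after glycan names were converted to IUPAC-condensed notation. The data come from 3228 arrays in the Consortium for Functional Glycomics database, limited to those with an available protein sequence. Binding is reported as a within-array Z-score averaged across arrays of one protein sequence and across linkers.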
# [2] = target: Neu5Ac(a2-3)Gal(b1-4)GlcNAc6S
# Method in brief: as §1
# [3] = target: Neu5Ac(a2-3)Gal(b1-4)[Fuc(a1-3)]GlcNAc
# Method in brief: as §1
# [4] = target: Neu5Ac(a2-3)Gal(b1-4)[Fuc(a1-3)]GlcNAc(b1-3)Gal
# Method in brief: as §1
# [5] = target: Neu5Ac(a2-3)Gal(b1-4)[Fuc(a1-3)]GlcNAc(b1-3)Gal(b1-4)GlcNAc
# Method in brief: as §1
# [6] = target: Neu5Ac(a2-3)Gal(b1-4)[Fuc(a1-3)]GlcNAc(b1-3)Gal(b1-4)[Fuc(a1-3)]GlcNAc(b1-3)Gal(b1-4)[Fuc(a1-3)]GlcNAc
# Method in brief: as §1
# [7] = target: Neu5Ac(a2-3)Gal(b1-4)[Fuc(a1-3)]GlcNAc6S
# Method in brief: as §1
# [8] = target: Neu5Ac(a2-3)Gal6S(b1-4)GlcNAc
# Method in brief: as §1
# [9] = target: Neu5Ac(a2-3)Gal6S(b1-4)[Fuc(a1-3)]GlcNAc
# Method in brief: as §1
# [10] = target: Neu5Ac(a2-3)GalNAc
# Method in brief: as §1
# [11] = target: Neu5Ac(a2-3)GalNAc(b1-4)GlcNAc
# Method in brief: as §1
# [12] = target: Neu5Ac(a2-3)[GalNAc(b1-4)]Gal(b1-4)Glc
# Method in brief: as §1
# [13] = target: Neu5Ac(a2-3)[GalNAc(b1-4)]Gal(b1-4)GlcNAc
# Method in brief: as §1
# [14] = target: Neu5Ac(a2-3)[Neu5Ac(a2-6)]GalNAc
# Method in brief: as §1
# [15] = target: Neu5Ac(a2-6)Gal
# Method in brief: as §1
# [16] = target: Neu5Ac(a2-6)Gal(b1-4)Glc
# Method in brief: as §1
# [17] = target: Neu5Ac(a2-6)Gal(b1-4)GlcNAc
# Method in brief: as §1
# [18] = target: Neu5Ac(a2-6)Gal(b1-4)GlcNAc(b1-2)Man(a1-3)[Neu5Ac(a2-6)Gal(b1-4)GlcNAc(b1-2)Man(a1-6)]Man(b1-4)GlcNAc(b1-4)GlcNAc
# Method in brief: as §1
# [19] = target: Neu5Ac(a2-6)Gal(b1-4)GlcNAc(b1-3)Gal(b1-4)GlcNAc
# Method in brief: as §1
# [20] = target: Neu5Ac(a2-6)Gal(b1-4)GlcNAc(b1-3)Gal(b1-4)[Fuc(a1-3)]GlcNAc(b1-3)Gal(b1-4)[Fuc(a1-3)]GlcNAc
# Method in brief: as §1
# [21] = target: Neu5Ac(a2-6)Gal(b1-4)GlcNAc6S
# Method in brief: as §1
# [22] = target: Neu5Ac(a2-6)GalNAc
# Method in brief: as §1
# [23] = target: Neu5Ac(a2-6)GalNAc(b1-4)GlcNAc
# Method in brief: as §1
# [24] = target: Neu5Ac(a2-8)Neu5Ac
# Method in brief: as §1
# [25] = target: Neu5Ac(a2-8)Neu5Ac(a2-3)Gal(b1-4)Glc
# Method in brief: as §1
# [26] = target: Neu5Ac(a2-8)Neu5Ac(a2-3)[GalNAc(b1-4)]Gal(b1-4)Glc
# Method in brief: as §1
# [27] = target: Neu5Ac(a2-8)Neu5Ac(a2-8)Neu5Ac
# Method in brief: as §1
# [28] = target: Neu5Ac(a2-8)Neu5Ac(a2-8)Neu5Ac(a2-3)Gal(b1-4)Glc
# Method in brief: as §1
# [29] = target: Neu5Ac(a2-8)Neu5Ac(a2-8)Neu5Ac(a2-3)[GalNAc(b1-4)]Gal(b1-4)Glc
# Method in brief: as §1
# [30] = target: Neu5Ac(a2-8)Neu5Ac(a2-8)Neu5Ac(a2-8)Neu5Ac(a2-3)[GalNAc(b1-4)]Gal(b1-4)Glc
# Method in brief: as §1
# [31] = target: Neu5Ac(b1-6)GalNAc
# Method in brief: as §1
# [32] = target: Neu5Ac(b2-6)Gal(b1-4)GlcNAc
# Method in brief: as §1
# [33] = target: Neu5Ac9Ac(a2-6)Gal(b1-4)GlcNAc
# Method in brief: as §1
# [34] = target: Neu5Gc(a2-3)Gal(b1-3)GlcNAc
# Method in brief: as §1
# [35] = target: Neu5Gc(a2-3)Gal(b1-3)[Fuc(a1-4)]GlcNAc
# Method in brief: as §1
# [36] = target: Neu5Gc(a2-3)Gal(b1-4)Glc
# Method in brief: as §1
# [37] = target: Neu5Gc(a2-3)Gal(b1-4)GlcNAc
# Method in brief: as §1
# [38] = target: Neu5Gc(a2-3)Gal(b1-4)[Fuc(a1-3)]GlcNAc
# Method in brief: as §1
# [39] = target: Neu5Gc(a2-3)Gal(b1-4)[Fuc(a1-4)]GlcNAc
# Method in brief: as §1
# [40] = target: Neu5Gc(a2-6)Gal(b1-4)GlcNAc
# Method in brief: as §1
# [41] = target: Neu5Gc(a2-6)GalNAc
# Method in brief: as §1
binder,measurement,setting,value
T7P4 (Tuber borchii) (protein) GSHIGPYMSFYASSEDVRTIEEGGRTWLVGRARRADGSWQDIKLDLDNIIGNRDGHLTWGEQNFTQSASDIRFNFEGSNVPVLRAKLRNAAGGEQESDLNLGERLTNNNGDLVFN,glycan array binding signal (z-score),[1],-0.21
same,glycan array binding signal (z-score),[2],-0.208
same,glycan array binding signal (z-score),[3],-0.116
same,glycan array binding signal (z-score),[4],-0.223
same,glycan array binding signal (z-score),[5],-0.218
same,glycan array binding signal (z-score),[6],-0.164
same,glycan array binding signal (z-score),[7],-0.137
same,glycan array binding signal (z-score),[8],-0.213
same,glycan array binding signal (z-score),[9],-0.174
same,glycan array binding signal (z-score),[10],-0.215
same,glycan array binding signal (z-score),[11],-0.218
same,glycan array binding signal (z-score),[12],-0.223
same,glycan array binding signal (z-score),[13],-0.222
same,glycan array binding signal (z-score),[14],-0.22
same,glycan array binding signal (z-score),[15],-0.223
same,glycan array binding signal (z-score),[16],-0.168
same,glycan array binding signal (z-score),[17],-0.209
same,glycan array binding signal (z-score),[18],-0.218
same,glycan array binding signal (z-score),[19],-0.221
same,glycan array binding signal (z-score),[20],-0.209
same,glycan array binding signal (z-score),[21],-0.212
same,glycan array binding signal (z-score),[22],-0.189
same,glycan array binding signal (z-score),[23],-0.223
same,glycan array binding signal (z-score),[24],-0.22
same,glycan array binding signal (z-score),[25],-0.136
same,glycan array binding signal (z-score),[26],-0.219
same,glycan array binding signal (z-score),[27],-0.138
same,glycan array binding signal (z-score),[28],-0.213
same,glycan array binding signal (z-score),[29],-0.217
same,glycan array binding signal (z-score),[30],-0.223
same,glycan array binding signal (z-score),[31],-0.223
same,glycan array binding signal (z-score),[32],-0.135
same,glycan array binding signal (z-score),[33],0.017
same,glycan array binding signal (z-score),[34],-0.188
same,glycan array binding signal (z-score),[35],-0.192
same,glycan array binding signal (z-score),[36],-0.135
same,glycan array binding signal (z-score),[37],-0.191
same,glycan array binding signal (z-score),[38],-0.217
same,glycan array binding signal (z-score),[39],-0.216
same,glycan array binding signal (z-score),[40],-0.215
same,glycan array binding signal (z-score),[41],-0.201
